Experimental data: PubChem BioAssay AID1345083 (National Center for Advancing Translational Sciences (NCATS), 2018)
Among all 94,000 compounds or so, about 6,200 (6.6%) were called active. The shares of active, inactive and inconclusive entries below differ from those in the screen. Calls come from the whole dose curve; as a rule, active = well fitted inhibition curve with a large enough effect; inconclusive = small, poorly fitted or top-dose-only effect; inactive = flat fitted curve, though single readings scatter. Where the call is inconclusive, the potency comes from a doubtful curve fit.
Potency is the fitted concentration of half-maximal effect; tags give direction and shape of the fitted curve.

Experiment: Cytotoxic Profiling in HEK 293 Cell Line of Diverse Libraries Using Quantitative High-Throughput Screening; note: nearly all actives have a fitted effect of over 60% in size
Settings: HEK 293 viability, ATP luminescence (CellTiter-Glo), 48-72 h; series mostly up to 115 µM
Summary of the method: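 Read-out: CellTiter-Glo ATP luminescence. Cells: HEK 293, 250 cells/well. Exposure: 48 or 72 hr, 37 degree Celsius.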
In the case of `COc1cccc(-c2noc(-c3ccc(NCCCSC)nc3)n2)c1OC`, the Potency is reported as inconclusive: 50.1 µM [inhibitor, partial curve, poor fit].
In the case of `CCCc1noc(-c2cccn3c(CNC(=O)c4cc(C)ccc4C)nnc23)n1`, the Potency is reported as inconclusive: 89.1 µM [inhibitor, single point].
In the case of `CCOc1cccc(-c2nc(C(=O)NCCc3ccccc3OC)cs2)c1`, the Potency is reported as inconclusive: 89.1 µM [inhibitor, single point].
With `O=C(CN1CC2CC(C1)[C@H]1CCCC(=O)N1C2)NCCc1ccccc1` (stereo not given in full) the Potency was “inactive”.
For `COc1ccccc1-c1nc2nccc(-c3ccc4c(c3)OCCCO4)n2n1`, the Potency was active: 17.8 µM.
For `CS(=O)(=O)N[C@H]1C[C@H]2C(=O)Nc3ccc(-c4cccc(C(F)(F)F)c4)cc3C(=O)N2C1`, the Potency was inconclusive: 56.2 µM [inhibitor, partial curve, poor fit].
With `O=C(NCCc1ccccc1)c1nc2sccn2c1-c1ccncc1` the Potency was “inactive”.
In the case of `Cc1cc(N2CCC(NCc3cc(C)nn3C)CC2)nc(-c2ccccc2)n1`, the Potency is reported as inconclusive: 44.7 µM [inhibitor, partial curve].
For `Cc1noc2c(N3CC[S+](=O)([O-])CC3)cc(-c3ccccc3)nc12`, the Potency was “inactive”.
In the case of `CC1=C(C(=O)OC(C)(C)C)C(c2ccccc2)N2C(CC(=O)NCc3ccco3)=CSC2=N1` (stereo not given), the Potency is reported as inconclusive: 79.4 µM [inhibitor, partial curve].
For `Cn1c(N2CCN(C(=O)CC[C@H]3NC(=O)c4ccccc4NC3=O)CC2)nc2ccccc21`, the Potency was “inactive”.
In the case of `COCc1ccc2c(c1)c(OC(C)(C)C(=O)Nc1cc(C)nn1C)nn2CCC(C)C`, the Potency is reported as inconclusive: 100 µM [inhibitor, partial curve, poor fit].
In the case of `CNC(=O)c1cc(C2CC2)nc2c1c(C1CCCN1[S+](C)(=O)[O-])nn2C` (stereo not given), the Potency is reported as “inactive”.
In the case of `COc1ccc(C(=O)N2CCC3(CC2)N=C(c2ccc(Br)cc2)NO3)cc1`, the Potency is reported as inconclusive: 50.1 µM [inhibitor, partial curve, poor fit].
For `CC(NC(=O)NC1CCN(Cc2ccc(-c3ccsc3)cc2)C1)c1ccccc1` (stereo not given), the Potency was “inactive”.
In the case of `CN(C)c1ncnc2sc3c(c12)CCN(Cc1ccccc1)C3`, the Potency is reported as inconclusive: 50.1 µM [inhibitor, partial curve, poor fit].
With `O=C(NCc1ccc(F)c(F)c1)c1ccc2nc(-c3ccccn3)oc2c1` the Potency was inconclusive: 25.1 µM [inhibitor, full curve].
In the case of `CCC1(CC)CCN(C(=O)c2coc(COc3ccc4sc(C)nc4c3)n2)C1`, the Potency is reported as inconclusive: 89.1 µM [inhibitor, single point].
With `Cc1ccc(NC(=O)N2CC(CN3C(=O)c4c(c(C)nn4-c4ccccc4)C3C)C2)cc1F` (stereo not given) the Potency was inconclusive: 4.47 µM [inhibitor, full curve].
For `Cn1nc(-c2ccncc2)cc1NC(=O)c1ccccc1`, the Potency was inconclusive: 79.4 µM [inhibitor, partial curve, poor fit].
For `O=C(NCc1ccccc1F)C1CCCN(Cc2cccc(-c3ccc(F)cc3F)c2)C1` (stereo not given), the Potency was inconclusive: 39.8 µM [inhibitor, full curve, poor fit].
With `CO[C@H]1C(=O)N(C(C)C)[C@H]1C1CCN(Cc2cn[nH]c2-c2ccccc2)CC1` the Potency was “inactive”.
With `O=C(NCC1Cn2cccc2C(=O)N1Cc1ccccc1)c1cccc2nccnc12` (stereo not given) the Potency was inconclusive: 89.1 µM [inhibitor, single point].
With `CC(C)CCN1CCC2(CC1)CC(=O)c1ccc(Cl)cc1O2` the Potency was inconclusive: 100 µM [inhibitor, partial curve, poor fit].
With `COc1ccc(OC)c(CN2CCCn3nc(C)c(-c4ccccc4OCc4ccccc4)c32)c1` the Potency was active: 11.2 µM.
For `O=C(c1n[nH]c2c1CCCC2)N1CCC2(CC1)N=C(c1ccccc1)NO2`, the Potency was inconclusive: 89.1 µM [inhibitor, single point].
In the case of `C=CCNC(=O)Cc1ccc(N(Cc2cccc(F)c2)C(=O)c2ccco2)cc1`, the Potency is reported as inconclusive: 89.1 µM [inhibitor, single point].
With `Cc1ccc(N2CCC(NC(=O)c3ccc(F)cc3Cl)C2=O)cc1C` (stereo not given) the Potency was inconclusive: 35.5 µM [inhibitor, partial curve].
With `CC(C)CCN1CCCC2(CN[S+](=O)([O-])c3ccccc3N2)C1` (stereo not given) the Potency was inconclusive: 79.4 µM [inhibitor, partial curve, poor fit].
With `NCC1Cn2cccc2CN1Cc1ccccc1` (stereo not given) the Potency was inconclusive: 50.1 µM [inhibitor, partial curve, poor fit].
With `Cc1cccc2[nH]c(CCNC(=O)C3CCC(=O)N(C4CCCCCC4)C3)nc12` (stereo not given) the Potency was inconclusive: 100 µM [inhibitor, single point].
In the case of `CC(=O)N1CCc2cc(S(=O)(=O)CCC(=O)N3CCC(CCOc4ccccc4)C3)ccc21` (stereo not given), the Potency is reported as “inactive”.
With `COc1ccc(-c2cc(N3CCCC(NC(=O)c4ccccc4Br)C3)n[nH]2)cc1` (stereo not given) the Potency was inconclusive: 39.8 µM [inhibitor, partial curve, poor fit].
In the case of `CC(C)(Oc1nn(Cc2cccc(Cl)c2)c2ccccc12)C(=O)NCCc1cnc[nH]1`, the Potency is reported as inconclusive: 39.8 µM [inhibitor, partial curve, poor fit].
For `CCn1nc(C(C)C)cc1C(=O)NCCCn1nc(C)c(Cl)c1C`, the Potency was inconclusive: 50.1 µM [inhibitor, partial curve, poor fit].
In the case of `CS(=O)(=O)N1CCCC1C(=O)Nc1ccc(-c2cccc(F)c2)cc1` (stereo not given), the Potency is reported as inconclusive: 44.7 µM [inhibitor, partial curve, poor fit].
For `O=C1CC(c2noc(-c3cc(F)ccc3F)n2)CN1c1ccc(Cl)cc1` (stereo not given), the Potency was inconclusive: 79.4 µM [inhibitor, partial curve].
With `CN(C)c1cccc(C(=O)N2CCC3(CC2)N=C(c2ccc(Br)cc2)NO3)c1` the Potency was inconclusive: 79.4 µM [inhibitor, single point].
For `COc1ccc(S(=O)(=O)Nc2ccc(C)n(CC(=O)N(C)C)c2=O)cc1`, the Potency was “inactive”.
For `CCOCCNC(=O)C1CCCCN1Cc1ccc(-c2cc(F)ccc2OC)cc1` (stereo not given), the Potency was inconclusive: 50.1 µM [inhibitor, partial curve, poor fit].
